Test results from article PMC7819943, “Rice protein-binding microarrays: a tool to detect cis-acting elements near promoter regions in rice”.
Some of the results follow.

target: T1, OsWOX13 (Oryza sativa, UniProt Q5QMM3 1-267); test: protein-binding microarray (RPBM); PBS, 2% BSA, 51.3 ng/ul salmon testes DNA, 50 uM zinc acetate, 200 nM TF, 25 C, 1 h; high values mean tight binding; details: protein: recombinant; tags: N-terminal polyhistidine and DsRed monomer fusion (pET32a); label: CyDye5-dUTP incorporated in the synthesized complementary strand; 3' TTTTT single-stranded linker to array surface; dsDNA, one strand shown
T1 sequence: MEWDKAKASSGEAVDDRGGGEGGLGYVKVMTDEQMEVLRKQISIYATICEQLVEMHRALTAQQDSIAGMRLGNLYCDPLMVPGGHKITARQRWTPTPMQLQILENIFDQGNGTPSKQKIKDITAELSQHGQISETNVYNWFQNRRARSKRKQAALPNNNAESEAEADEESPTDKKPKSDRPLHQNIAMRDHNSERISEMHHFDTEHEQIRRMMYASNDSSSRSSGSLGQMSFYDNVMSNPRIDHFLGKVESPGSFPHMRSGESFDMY
Method in brief: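 An Axon 4000B scanner gave the binding signal as per-feature fluorescence intensity in arbitrary units. This followed washing of a custom Agilent array that had been incubated for 1 h at 25 °C with 200 nM protein in PBS, 2% BSA, salmon testes DNA and 50 µM zinc acetate. The proteins were transcription factors fused at the N-terminus to polyhistidine and DsRed, expressed in E. coli BL21-CodonPlus and purified on Ni–NTA.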

For “AGATTAATTAGTCTTAATAAATTCGTCTCGCGGTTTACTGCGGAGTCACCTAGTGCAG”, which binding signal is on record?
Its binding signal is 34200 fluorescence intensity (a.u.).

With “TTTTCAATTATTATATTAATTATAATAATAATCCCCGCAACGGAGTCACCTAGTGCAG” as the sequence, how does the binding signal read?
The binding signal was 42500 fluorescence intensity (a.u.).

With “GTGTATAATCTGATCTTCTGATGAGCATGATTCGGGGTCTCGGAGTCACCTAGTGCAG” as the sequence, how does the binding signal read?
Its binding signal is 3440 fluorescence intensity (a.u.).

“TACAAATGTAATTTTAGTTATAAGGCACTGTAATTTTAGTCGGAGTCACCTAGTGCAG” was tested. Which binding signal did it give?
Its binding signal is 3910 fluorescence intensity (a.u.).

“CTCAATGATATAATTATGGTGCAAATAATGCCTATCAACGCGGAGTCACCTAGTGCAG” was tested. Which binding signal did it give?
Its binding signal is 23200 fluorescence intensity (a.u.).

How did the binding signal turn out when “GCACGATGATTTTAGTGGCTTTGTTGGCGCGAGTTGGGTGCGGAGTCACCTAGTGCAG” was run?
The binding signal was 3450 fluorescence intensity (a.u.).

Which binding signal does the source give for “ACTGCAATCAGCCGAAGTTTTCTGGCCCAATCTGTCGGCCCGGAGTCACCTAGTGCAG” here?
Its binding signal is 3970 fluorescence intensity (a.u.).

“ATATGATTATTAATATTTTCTCCGTATTTTAATATATGACCGGAGTCACCTAGTGCAG” was tested. Which binding signal did it give?
The binding signal was 27400 fluorescence intensity (a.u.).

For “TGCCACATCAATCAAAACAATCACTTGTACTGTCTCAGGACGGAGTCACCTAGTGCAG”, which binding signal is on record?
Its binding signal is 24900 fluorescence intensity (a.u.).

For “TTTTCCAAATGTTTCCAATCAGCTTCTGTCTACTTTCTGACGGAGTCACCTAGTGCAG”, which binding signal is on record?
Its binding signal is 7060 fluorescence intensity (a.u.).

With “AGAAAACAAAACTGATTTATGTCAAATTCTAGTGAGAATACGGAGTCACCTAGTGCAG” as the sequence, how does the binding signal read?
The binding signal was 4270 fluorescence intensity (a.u.).

“ATTTAGAATGATTGCAATCTATCCTAGTAAGATTTAGATTCGGAGTCACCTAGTGCAG” was tested. Which binding signal did it give?
The binding signal was 46800 fluorescence intensity (a.u.).

Which binding signal does the source give for “TGTGCAACTCAATCAATCCAAAACACGTCCCTTGTCATTCCGGAGTCACCTAGTGCAG” here?
Its binding signal is 4430 fluorescence intensity (a.u.).

Which binding signal does the source give for “TTGCAAAATTTAAAATTATGTTGTCATTTTAATATATTTGCGGAGTCACCTAGTGCAG” here?
The binding signal was 6150 fluorescence intensity (a.u.).

“CATCGATCACCATTAGACTAATTTAGAGCTCTTGCTCGATCGGAGTCACCTAGTGCAG” was tested. Which binding signal did it give?
The binding signal was 6980 fluorescence intensity (a.u.).

With “GTATGATTTGTTAGTAGTCTTTATTTTGTGTTGATGTTTTCGGAGTCACCTAGTGCAG” as the sequence, how does the binding signal read?
The binding signal was 29300 fluorescence intensity (a.u.).

With “CCTAATGATCGATCCTTCCCACGTTCGAAGCTTCCCCTGTCGGAGTCACCTAGTGCAG” as the sequence, how does the binding signal read?
Its binding signal is 5110 fluorescence intensity (a.u.).

Which binding signal does the source give for “GCTTCAATCTGAACCATTCATTTTAACAGCTAACCAACTTCGGAGTCACCTAGTGCAG” here?
The binding signal was 4570 fluorescence intensity (a.u.).

With “GTGATTTGTTAATTGTTTCGCATTGTTCAATGTTAGTACACGGAGTCACCTAGTGCAG” as the sequence, how does the binding signal read?
Its binding signal is 36500 fluorescence intensity (a.u.).

Which binding signal does the source give for “ATCAATTTAATCTTATATAATGGAGCCAAATAAGCCCATACGGAGTCACCTAGTGCAG” here?
The binding signal was 6630 fluorescence intensity (a.u.).

Which binding signal does the source give for “GTACACACGCCCTGCCAAATTGACTGACCGCATCCTCGTCCGGAGTCACCTAGTGCAG” here?
Its binding signal is 3730 fluorescence intensity (a.u.).

How did the binding signal turn out when “AAAGGGTTAATTTGTCAAATTTTCGGGCTTTAGTGAAAAGCGGAGTCACCTAGTGCAG” was run?
Its binding signal is 12700 fluorescence intensity (a.u.).

How did the binding signal turn out when “TAGATTAGCTTATCAATGATTTGTTGCAAAATATCACACGCGGAGTCACCTAGTGCAG” was run?
The binding signal was 31300 fluorescence intensity (a.u.).

With “AATAATTACTTATTATACTATTAATATATGGTCTCACCTGCGGAGTCACCTAGTGCAG” as the sequence, how does the binding signal read?
The binding signal was 23300 fluorescence intensity (a.u.).

How did the binding signal turn out when “GTGAAATTGAGAGACAGGAGATGAACTTACTCCTTTCTTCCGGAGTCACCTAGTGCAG” was run?
The binding signal was 10800 fluorescence intensity (a.u.).

With “TTTCACAAATTGAAGCCCGGTGTGTTTAACCCCATAGCCACGGAGTCACCTAGTGCAG” as the sequence, how does the binding signal read?
Its binding signal is 17600 fluorescence intensity (a.u.).

Which binding signal does the source give for “TGATAGATTAAAATATGTGCTAATTTATAGTTGTGTTATACGGAGTCACCTAGTGCAG” here?
The binding signal was 3610 fluorescence intensity (a.u.).

“TTATGACTGAAATTTAGAATGGTTCAAATCTGAAACAGTCCGGAGTCACCTAGTGCAG” was tested. Which binding signal did it give?
Its binding signal is 17400 fluorescence intensity (a.u.).

How did the binding signal turn out when “GGTGTTCCTAATGACTTAATGACTTAATGTTAGATACCCTCGGAGTCACCTAGTGCAG” was run?
Its binding signal is 3190 fluorescence intensity (a.u.).

With “ATGCAATCAGACCAAATTTATGTCATTTGGTGAGAAATGACGGAGTCACCTAGTGCAG” as the sequence, how does the binding signal read?
The binding signal was 7700 fluorescence intensity (a.u.).

With “TCATTATCTGATTAGTTTGTAATACTGTCTAACTCAGGAGCGGAGTCACCTAGTGCAG” as the sequence, how does the binding signal read?
Its binding signal is 11200 fluorescence intensity (a.u.).

“TAACAATCATACTAATCATATCTATGCTAAGTATTACGCACGGAGTCACCTAGTGCAG” was tested. Which binding signal did it give?
The binding signal was 14400 fluorescence intensity (a.u.).

For “ATTCATTGATGAGGTTTGCGTTTCCAAGGCCATCTGCATCCGGAGTCACCTAGTGCAG”, which binding signal is on record?
The binding signal was 3290 fluorescence intensity (a.u.).

How did the binding signal turn out when “AATTCAGATTGATGAATGCAATTGCAAGGACAAATATTGCCGGAGTCACCTAGTGCAG” was run?
The binding signal was 40200 fluorescence intensity (a.u.).

Which binding signal does the source give for “TCAATTAATTTTATTCGATTCATAGCCTCGACATTACTAGCGGAGTCACCTAGTGCAG” here?
Its binding signal is 12300 fluorescence intensity (a.u.).

With “ATATGATAAATTAGTAGTGTAATTACATTACAACTTACATCGGAGTCACCTAGTGCAG” as the sequence, how does the binding signal read?
Its binding signal is 20400 fluorescence intensity (a.u.).

For “AGATGGATTACTAATCCACATTCCAGTTAGCAACGCATTGCGGAGTCACCTAGTGCAG”, which binding signal is on record?
Its binding signal is 3960 fluorescence intensity (a.u.).

How did the binding signal turn out when “TTGATCAAACTCGTCAGTTAATCACCAGTTGGAACAAGATCGGAGTCACCTAGTGCAG” was run?
Its binding signal is 5650 fluorescence intensity (a.u.).

For “AACCCTCAATCAATTCTGATGGCTCCAGAATGTGGAGTACCGGAGTCACCTAGTGCAG”, which binding signal is on record?
The binding signal was 27200 fluorescence intensity (a.u.).

How did the binding signal turn out when “GATAAATTTAGATGTGGTAATCACATCTACCGTAGCACTTCGGAGTCACCTAGTGCAG” was run?
Its binding signal is 24700 fluorescence intensity (a.u.).

Which binding signal does the source give for “CTTCAAAATTAAATTTGAAAATCCAAATTTTAGCTTTAGCCGGAGTCACCTAGTGCAG” here?
The binding signal was 14400 fluorescence intensity (a.u.).

With “AACAAAACAAATTACAGATTCTGCCAGGAAACTGTGAGACCGGAGTCACCTAGTGCAG” as the sequence, how does the binding signal read?
Its binding signal is 4810 fluorescence intensity (a.u.).
